Hit rate of the full screen: of about 300,000 compounds, about 22,000 (7.3%) were called active. The shares of active, inactive and inconclusive entries below differ from those in the screen. No stated cut-off is given here; in the data, active means activity score below about -60%; inconclusive means mostly about -28% to -61%; inactive means positive scores.
Assay: Activators via SNCA 5'UTR binding, MLPCN (AID 1814)
Conditions: alpha-synuclein 5'UTR reporter, activators screen; active compounds read low; tested at 7.5 µM

Structure (SMILES) | activity score
Cn1ccnc1SCC(=O)c1cc2ccccc2o1 | inconclusive: -47.5%
CCCCn1c(-c2cccs2)nc2nc3ccccc3nc21 | inconclusive: -54.6%
Cc1ccc(-n2ncc3c(NNC(=O)c4ccco4)ncnc32)cc1C | inconclusive: -59.7%
Cc1cccc(-c2nnc3n2N=C(c2ccccc2)CS3)c1 | inactive: 63%
CCOc1ccc2nc(N3CCC(C(=O)N4CCN(C5CCCCC5)CC4)CC3)sc2c1 | inconclusive: -60.5%
COc1ccc(C(=O)Oc2ccc(F)cc2C(=O)/C=C/c2ccc(OC)c(OC)c2)cc1 | inconclusive: -51.8%
CC(=O)c1ccc(N2CCN(c3ncccn3)CC2)c([N+](=O)[O-])c1 | inconclusive: -53.4%
O=C1c2ccccc2NC(c2ccccc2Cl)N1N=C1CCCCCC1 (configuration not stated) | active: -179%
Cc1nn(CCOc2ccccc2)c(=O)n1-c1ccc(Cl)cc1 | inconclusive: -49%
Cc1ccccc1N=Nc1ccc(O)c2ncccc12 | inactive: 54.3%
Cc1ccc2nc(C(F)C(F)(F)F)[nH]c2c1 (configuration not stated) | inconclusive: -47.3%
Nc1ncnc(Nc2ccc(F)c(Cl)c2)n1 | inconclusive: -54.2%
N#C/C(=C\c1ccc([N+](=O)[O-])o1)C(=O)Nc1ccc(F)cc1 | inconclusive: -42.7%
Cc1cc(C)c2nc(NNC(=O)c3ccc(S(=O)(=O)N4CCCC(C)C4)cc3)sc2c1 (configuration not stated) | inactive: 72.9%
CCCCC(=O)Nc1ccc(C(=O)NCCc2ccccc2)cc1 | inconclusive: -50.8%
CCNc1oc(-c2cccc3ccccc23)nc1C#N | active: -88.1%
Cc1oc2c(c1C(=O)NCc1cccnc1)C(=O)c1ccccc1C2=O | inactive: 107%
O=c1c2c(nc3c(-c4cccc(Br)c4)c[nH]n13)CCCC2 | inactive: 68.7%
CCN(c1ccc(NC(=O)COC(=O)c2ccc3ccccc3n2)cc1)C(C)C | inconclusive: -57.6%
CCOc1ccc2nc(SC3CC(=O)N(c4cccc(OC)c4)C3=O)sc2c1 (configuration not stated) | inconclusive: -58.6%
O=C1C(Cl)=C(NC2CCCCC2)C(=O)N1Cc1ccccc1 | inconclusive: -57.3%
Nc1c(C(=O)NCc2ccccc2)sc2nc(N3CCOCC3)c3c(c12)CCCC3 | inactive: 64.6%
Cc1cc(C)cc(NC(=S)N=Nc2c(O)n(C)c3ccc(S(=O)(=O)N4CCOCC4)cc23)c1 | inactive: 63.4%
Clc1ccc(OCc2nc(-c3ccccn3)n[nH]2)cc1 | inconclusive: -51.1%

Structure (SMILES) | activity score
CCc1ccc(-c2cn3nc(C)c(C)nc3n2)cc1 | inactive: 87%
COc1ccccc1Nc1nc(NCC(C)C)nc(N)c1[N+](=O)[O-] | inactive: 77.3%
CCCOC(=O)c1ccc(NC(=O)c2ccc(Br)o2)cc1 | inconclusive: -35.1%
C[N+](C)(C)c1ccc(/C=N/Nc2nc(Cl)c(C#N)c(Cl)c2Cl)cc1 | inconclusive: -47.5%
COc1cccc(-c2cc(C(=O)N3CCN(c4ncccn4)CC3)c3ccccc3n2)c1 | inconclusive: -40.4%
CCN(CC)S(=O)(=O)c1ccc(OC)c(NC(=S)Nc2cccc(C)c2)c1 | inconclusive: -52.6%
COc1cc(-c2cc(=O)c3ccccc3o2)ccc1O | inconclusive: -47.5%
Cc1ccc2nc(Cl)c(-c3ccccc3)cc2c1 | inactive: 74.2%
O=C(NNc1ccc(C2CCCCC2)cc1)C(O)(c1ccccc1)c1cccs1 (configuration not stated) | inconclusive: -55.8%
COc1cc(C=O)ccc1OCCCCOc1ccccc1[N+](=O)[O-] | inconclusive: -50%
CCC(=O)c1coc2ccc(O)cc12 | inconclusive: -47.1%
COC(=O)c1cccc(NC(=S)Nc2cccc(Cl)c2C)c1 | inconclusive: -54.8%
COc1cccc(/C=C/c2ccccn2)c1O | active: -97.9%
Cc1ccc(OCC(=O)NNC(=O)c2ccco2)c(C)c1 | inconclusive: -39.1%
COCCCNC(=S)N/N=C/c1ccc(N(C)C)cc1 | active: -112%
O=C(/C=C/c1ccc(F)cc1)NC(=S)NNC(=O)c1cnccn1 | inactive: 95.5%
COC(=O)Cc1ccc(NC(=O)c2ccc(C)c(C)c2)cc1 | inconclusive: -56.4%
COc1ccc2nc(NNC(=O)C3COc4ccccc4O3)sc2c1 (configuration not stated) | inconclusive: -39.9%
Cc1cc(C)c2c3c(sc2n1)C(c1ccccc1)C(C#N)=C(N)O3 (configuration not stated) | inconclusive: -57.3%
Cc1ccccc1C(=O)c1cccn1CC(=O)NCc1ccc2c(c1)OCO2 | inconclusive: -37.2%
Cc1cc2ncc(S(C)(=O)=O)c(N)n2n1 | inactive: 59.7%
CC(=O)c1c(C)[nH]c(C(=O)Nc2ccc(C)cn2)c1C | inactive: 84.9%
O=C(O)c1ccc(N/N=C/c2ccc3nccnc3c2)cc1 | inactive: 94%
